Data: the supplement of paper PMC4967469

Legend:
Experiment in all cases: Viability of human cancer cell lines after 72 h of drug (GDSC screen)
NSC-87877 = compound: O=S(=O)(O)c1ccc2cc(N=Nc3cc(S(=O)(=O)O)c4cccnc4c3O)ccc2c1 [NSC-87877]; conditions: top dose 16 µM; top dose inferred
Experimental: (§1)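 Human cancer cell lines in 384-well plates, medium with 10% serum, drug for 72 h over a 256-fold dose range (nine 2-fold or five 4-fold steps up to the top dose). Adherent lines were fixed and stained with the nucleic acid dye Syto60, suspension lines read with resazurin; signal relative to control wells, capped at 0 and 100%. One two-parameter sigmoid per drug and line, fitted in a mixed model over all curves with the slope shared within a line.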

Masitinib = compound: Cc1ccc(NC(=O)c2ccc(CN3CCN(C)CC3)cc2)cc1Nc1nc(-c2cccnc2)cs1 [Masitinib]; conditions: top dose 20 µM
Experimental: as §1

BX-912 = compound: O=C(Nc1cccc(Nc2ncc(Br)c(NCCc3cnc[nH]3)n2)c1)N1CCCC1 [BX-912]; conditions: top dose 10.24 µM; top dose inferred
Experimental: as §1

VNLG/124 = compound: CCCC(=O)OCc1ccc(OC(=O)/C=C(C)/C=C/C=C(C)/C=C/C2=C(C)CCCC2(C)C)cc1 [VNLG/124]; conditions: top dose 5.12 µM; top dose inferred
Experimental: as §1

Elesclomol = compound: CN(NC(=O)CC(=O)NN(C)C(=S)c1ccccc1)C(=S)c1ccccc1 [Elesclomol]; conditions: top dose 0.2 µM; top dose inferred
Experimental: as §1

OSI-930 = compound: O=C(Nc1ccc(OC(F)(F)F)cc1)c1sccc1NCc1ccnc2ccccc12 [OSI-930]; conditions: top dose 10.24 µM
Experimental: as §1

HG-5-88-01 = compound: COc1cc(N2CCC(C(N)=O)CC2)ccc1Nc1nc(N)c(Cl)c(Nc2ccccc2S(=O)(=O)C(C)C)n1 [HG-5-88-01]; conditions: top dose 10 µM; top dose inferred
Experimental: as §1

Bleomycin = compound: Cc1c(N)nc([C@H](CC(N)=O)NC[C@H](N)C(N)=O)nc1C(=O)N[C@H](C(=O)N[C@H](C)[C@@H](O)[C@H](C)C(=O)N[C@H](C(=O)NCCc1nc(-c2nc(C(=O)NCCC[S+](C)C)cs2)cs1)[C@@H](C)O)[C@@H](OC1OC(CO)C(O)C(O)C1OC1OC(CO)C(O)C(OC(N)=O)C1O)c1cnc[nH]1 [Bleomycin]
Experimental: as §1

LAQ824 = compound: O=C(/C=C/c1ccc(CN(CCO)CCc2c[nH]c3ccccc23)cc1)NO [LAQ824]; conditions: top dose 1.024 µM; top dose inferred
Experimental: as §1

Tamoxifen = compound: CC/C(=C(\c1ccccc1)c1ccc(OCCN(C)C)cc1)c1ccccc1 [Tamoxifen]; conditions: top dose 5 µM
Experimental: as §1

[1] = top dose 50 µM, screen: GDSC drug entry 1378, top dose inferred
[2] = top dose 64 µM, screen: GDSC drug entry 190

| Cell Line | AUC (NSC-87877) | IC50 (NSC-87877) [µM] | AUC (Masitinib) | IC50 (Masitinib) [µM] | AUC (BX-912) | IC50 (BX-912) [µM] | AUC (VNLG/124) | IC50 (VNLG/124) [µM] | AUC (Elesclomol) | IC50 (Elesclomol) [µM] | AUC (OSI-930) | IC50 (OSI-930) [µM] | AUC (HG-5-88-01) | IC50 (HG-5-88-01) [µM] | AUC (Bleomycin; [1]) | IC50 (Bleomycin; [1]) [µM] | AUC (Bleomycin; [2]) | IC50 (Bleomycin; [2]) [µM] | AUC (LAQ824) | IC50 (LAQ824) [µM] | AUC (Tamoxifen) | IC50 (Tamoxifen) [µM] |
| --- | --- | --- | --- | --- | --- | --- | --- | --- | --- | --- | --- | --- | --- | --- | --- | --- | --- | --- | --- | --- | --- | --- |
| BT-20 (breast, adherent) | 0.978 | > 16 | 0.928 | > 20 | 0.964 | > 10.2 | 0.978 | > 5.12 | 0.662 | 0.0396 | 0.964 | > 10.2 | 0.982 | > 10 | 0.695 | 12.7 | 0.419 | 2.27 | 0.717 | 0.311 | – | – |
| SKM-1 (haematopoietic neoplasm, suspension) | – | – | – | – | – | – | – | – | – | – | – | – | 0.741 | 3.32 | 0.795 | 25.9 | – | – | – | – | 0.946 | > 5 |
| NCI-H460 (large cell lung carcinoma, adherent) | 0.977 | > 16 | 0.987 | > 20 | 0.987 | > 10.2 | 0.99 | > 5.12 | 0.364 | 0.00547 | 0.985 | > 10.2 | 0.982 | > 10 | 0.123 | 0.233 | 0.562 | 5.8 | 0.382 | 0.0313 | – | – |
| KYSE-140 (oesophagus, adherent) | 0.923 | > 16 | 0.887 | > 20 | 0.886 | > 10.2 | 0.983 | > 5.12 | 0.504 | 0.0128 | 0.967 | > 10.2 | 0.946 | > 10 | 0.646 | 8.38 | 0.52 | 4.56 | 0.411 | 0.0353 | – | – |
| T84 (large intestine, adherent) | 0.976 | > 16 | 0.895 | > 20 | 0.941 | > 10.2 | 0.958 | > 5.12 | 0.951 | > 0.2 | 0.932 | > 10.2 | 0.881 | > 10 | 0.931 | > 50 | 0.663 | 11.5 | 0.384 | 0.0306 | – | – |
| HCC1937 (breast, adherent) | 0.979 | > 16 | 0.899 | > 20 | 0.932 | > 10.2 | 0.985 | > 5.12 | 0.316 | 0.00351 | 0.968 | > 10.2 | 0.958 | > 10 | 0.792 | 26.6 | 0.057 | < 0.25 | 0.516 | 0.071 | – | – |
| NCI-H1975 (lung adenocarcinoma, adherent) | 0.98 | > 16 | 0.918 | > 20 | 0.96 | > 10.2 | 0.969 | > 5.12 | 0.403 | 0.0065 | 0.943 | > 10.2 | 0.89 | > 10 | 0.676 | 10.5 | 0.528 | 4.82 | 0.266 | 0.0123 | – | – |
| SK-N-SH (neuroblastoma, adherent) | 0.987 | > 16 | 0.921 | > 20 | 0.917 | > 10.2 | 0.987 | > 5.12 | 0.444 | 0.00882 | 0.983 | > 10.2 | 0.704 | 2.34 | 0.335 | 1.09 | 0.125 | 0.257 | 0.286 | 0.016 | – | – |
| SNB75 (glioma, adherent) | 0.978 | > 16 | 0.937 | > 20 | 0.885 | > 10.2 | 0.972 | > 5.12 | 0.782 | 0.128 | 0.977 | > 10.2 | 0.897 | > 10 | 0.691 | 13.9 | 0.403 | 1.91 | 0.527 | 0.0787 | – | – |
| U-2-OS (osteosarcoma, adherent) | 0.966 | > 16 | 0.974 | > 20 | 0.97 | > 10.2 | 0.979 | > 5.12 | 0.558 | 0.0183 | 0.974 | > 10.2 | 0.919 | > 10 | 0.36 | 1.23 | 0.879 | > 64 | 0.532 | 0.0789 | – | – |
| Hs-578-T (breast, adherent) | 0.986 | > 16 | 0.987 | > 20 | 0.96 | > 10.2 | 0.987 | > 5.12 | 0.517 | 0.0139 | 0.984 | > 10.2 | 0.968 | > 10 | 0.678 | 10.2 | 0.951 | > 64 | 0.986 | > 1.02 | – | – |
| H2810 (mesothelioma, adherent) | – | – | – | – | – | – | – | – | – | – | – | – | 0.891 | > 10 | 0.84 | 39.5 | – | – | – | – | 0.984 | > 5 |
| HT-29 (large intestine, adherent) | 0.967 | > 16 | 0.803 | 9.88 | 0.935 | > 10.2 | 0.975 | > 5.12 | 0.748 | 0.0641 | 0.979 | > 10.2 | 0.77 | 3.81 | 0.921 | > 50 | 0.261 | 0.832 | 0.312 | 0.0191 | – | – |
| NCI-H2066 (small cell lung carcinoma, adherent) | – | – | – | – | – | – | – | – | – | – | – | – | 0.938 | > 10 | 0.958 | > 50 | – | – | – | – | 0.977 | > 5 |
| SF268 (glioma, adherent) | 0.979 | > 16 | 0.879 | > 20 | 0.872 | > 10.2 | 0.974 | > 5.12 | 0.322 | 0.0038 | 0.978 | > 10.2 | 0.975 | > 10 | 0.263 | 0.619 | 0.356 | 1.55 | 0.467 | 0.0516 | – | – |

By IC50 is meant the dose at which the fit gives 50% viability; where the fit passes the top or lowest dose, that dose stands as a limit. AUC is the area under the same curve over the 256-fold range up to the top dose, as a fraction; it is 1 without any effect and falls as sensitivity rises. For part of these data: An inferred top dose comes from the curve model; the source does not state it. For part of these data: Drugs with an entry number were screened twice under separate entries, and the two screens often disagree.
